The values that follow come from PubChem BioAssay AID1645882 (National Center for Advancing Translational Sciences (NCATS), 2021).

The whole screen tested about 16,000 compounds, of which about 120 (0.75%) were called active. Not shown: some 4% with an inconclusive outcome. Calls come from the whole dose curve; as a rule, active = well fitted inhibition curve with a large enough effect; inconclusive = small, poorly fitted or top-dose-only effect; inactive = no such curve, though single readings can be large or run the other way. This is one part of the list. The source holds several records for some structures; these can differ, active in one and inactive in another.
Potency is the fitted concentration of half-maximal effect.

Chain of UniProt O95398 (O95398 whole entry, looked up): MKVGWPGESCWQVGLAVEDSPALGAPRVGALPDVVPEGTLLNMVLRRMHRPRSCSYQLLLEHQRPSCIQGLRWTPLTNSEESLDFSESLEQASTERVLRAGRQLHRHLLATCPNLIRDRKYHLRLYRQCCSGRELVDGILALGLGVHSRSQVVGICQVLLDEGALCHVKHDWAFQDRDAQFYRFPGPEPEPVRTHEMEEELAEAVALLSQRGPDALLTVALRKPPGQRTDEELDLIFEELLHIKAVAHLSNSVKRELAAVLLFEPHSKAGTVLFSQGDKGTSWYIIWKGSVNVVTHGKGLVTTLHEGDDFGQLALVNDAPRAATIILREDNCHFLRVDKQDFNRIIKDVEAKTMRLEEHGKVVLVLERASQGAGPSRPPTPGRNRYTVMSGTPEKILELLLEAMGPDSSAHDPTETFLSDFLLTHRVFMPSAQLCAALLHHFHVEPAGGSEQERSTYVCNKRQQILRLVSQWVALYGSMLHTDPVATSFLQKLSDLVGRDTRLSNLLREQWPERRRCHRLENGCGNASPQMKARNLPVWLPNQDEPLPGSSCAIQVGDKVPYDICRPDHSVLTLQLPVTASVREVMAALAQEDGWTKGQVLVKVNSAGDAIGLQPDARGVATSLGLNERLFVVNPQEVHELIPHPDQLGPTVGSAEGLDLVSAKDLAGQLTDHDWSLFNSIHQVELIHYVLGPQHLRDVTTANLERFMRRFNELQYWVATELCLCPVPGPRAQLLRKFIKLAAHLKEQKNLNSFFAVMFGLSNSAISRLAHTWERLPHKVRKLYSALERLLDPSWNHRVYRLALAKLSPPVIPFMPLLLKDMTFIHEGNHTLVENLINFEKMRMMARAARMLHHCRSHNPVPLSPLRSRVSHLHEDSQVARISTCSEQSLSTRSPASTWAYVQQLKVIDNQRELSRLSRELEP

The assay addresses Rap guanine nucleotide exchange factor 3 (Homo sapiens) (UniProt O95398). Briefly: Validation qHTS for antagonist of cAMP-regulated guanine nucleotide exchange factor 3 (EPAC1). Note: nearly all actives have a fitted effect of over 75% in size. The settings on record: EPAC1 Rap1B-BODIPY-GDP exchange, fluorescence; series mostly up to 150 µM; activity change, negative = inhibition: at the top concentration. The text has this:
Assay Provider (PI): Xiaodong Cheng Ph.D.
The University of Texas Medical Branch, […], TX
In multi-cellular eukaryotic organisms, the effects of cAMP are transduced by two ubiquitously-expressed intracellular cAMP receptors, the classic protein kinase A/cAMP-dependent protein kinase (PKA/cAPK) and the more recently discovered exchange protein directly activated by cAMP/cAMP-regulated guanine nucleotide exchange factor (EPAC/cAMP-GEF). Both PKA and EPAC are ubiquitously expressed in all tissues, and an increase in intracellular cAMP levels will lead to the activation of both PKA and EPAC. Therefore, careful dissections of the individual role and relative contribution of EPAC and PKA within the overall cAMP signaling in various model systems are critical for further elucidating the mechanism of cAMP signaling. To date no EPAC-specific antagonists and agonist, as well as isoform-specific agonists have been reported, and developing EPAC-specific pharmacological probes to determine the physiological functions that EPAC play in the overall cAMP-mediated signaling remains a major challenge within the research field. Furthermore, identified regulators of EPAC may lead to new mechanism-based therapeutic strategies specifically targeting the EPAC / cAMP-signaling components as EPAC has been implicated to play important roles in major human pathological conditions such as diabetes, heart disease, and cancer.
This qHTS will be used to screen the Molecular Libraries Small Molecule Repository (MLSMR) as a concentration-titration series using the NCGC unique quantitative screening (qHTS) platform to find activators for EPAC1. In addition, this assay will also be used as a counterscreen for the EPAC2 qHTS. This fluorescent based assay is developed and validated for EPAC1 that measures exchange using EPAC effector Rap1 complex with BODIPY-GDP, a GDP analog with a tethered fluorophores. Activators are identified by monitoring the change in fluorescence signal as the exchanged free BODIPY-GDP has a reduced fluorescence compared to Rap1-bound BODIPY-GDP. Increase in signal (activation) is the desired outcome for the EPAC1 agonist while no activity in this assay is desired for the EPAC2 agonist counterscreen.
[1] de Rooij, J., Zwartkruis, F. J., Verheijen, M. H., Cool, R. H., Nijman, S. M., Wittinghofer, A., and Bos, J.L. (1998) Nature 396, 474-477.
Briefly, three uL of reagents (100 nM EPAC1, 250 nM RAP1B-BODIPY-GDP, 50 uM GDP) were dispensed into a 1536-well Greiner black solid-bottom medium binding assay plate. Controls and test compounds (23 nL) were transferred to the plate via a Kalypsys pin tool equipped with a 1536-pin array. The plates were centrifuged at 1,000 rpm for 15 seconds followed by 5 minute incubation at room temperature. The assay plates were read at 5 minute intervals for 30 minutes in the ViewLux plate reader using 480nm excitation and 540nm emission filters. The results were normalized to the […] positive control ATA and DMSO.
On the technique in general: In qHTS, concentration-response curves come from the screen itself.
For the compound `COc1ccccc1-c1coc2cc(O)ccc2c1=O`, the “activity change, negative = inhibition” value was inactive: 12.8%.
For `Oc1ccc(C2CNCCc3c2cc(O)c(O)c3Cl)cc1` (stereo not given), the activity change, negative = inhibition entry was “inactive”.
In the case of `COc1ccccc1CNc1ncnc2ccc(-c3c(C)noc3C)cc12`, the “activity change, negative = inhibition” value is inactive: 11.7%.
In the case of `CCC1CN(Cc2cccn2-c2ccccn2)Cc2cc(OC)ccc2O1` (stereo not given), the “activity change, negative = inhibition” value was inactive: 3.39%.
Same read-out and setting: under `CC(C(=O)O)c1cccc(Oc2ccccc2)c1` (stereo not given) stands “inactive”.
Still for that read-out and setting: under `COC(=O)c1c(OCc2cccnc2)cc(=O)n2c1CCN(C(=O)c1c3c(nn1C)CCCC3)CC2` stands inactive: 9.38%; under `C[C@@H]1CN(CCCn2c3ccccc3c3ccccc32)C[C@H](C)N1`, inactive: 14.3%.
On the same count and under the same terms, the value for `COC1=CC(C)C2CC3OC(=O)CC4C(C)=C(OC)C(=O)C([C@]2(C)C1=O)[C@]34C` (stereo not given in full) was inactive: 8.1%; that for `O=c1nc2ccccc2c2n1C[C@H](CN1CCN(c3ccccc3)CC1)N2` was inactive: 8.52%; that for `CN1Cc2c(C(=O)OC(C)(C)C)ncn2-c2ccsc2C1=O` was inactive: -2.79%.
In the case of `COc1cccc(N2[C@@H](CC(C)=O)c3ccccc3S2(=O)=O)c1`, the “activity change, negative = inhibition” value was inactive: -4.28%.
With `N#C/C(=C\c1ccc(O)c(O)c1)C(=O)Nc1ccccc1`, the Potency was active: 79.4 µM and inactive.
With `COc1ccc([N+](=O)[O-])c2c1CCN2C(=O)CC[C@H](N)C(=O)O`, the “activity change, negative = inhibition” value was inactive: 8.56%.
Same read-out and setting: the value for `CCN(CC)Cc1ccc(Nc2ccnc3cc(Cl)ccc23)cc1O` was inactive: 0.981%; that for `CC1(C)C(=O)C2C[C@]3(O)C4=CC(=O)OC(c5ccoc5)[C@]4(C)CCC3[C@](C)(C2=O)C1CC(=O)O` (stereo not given in full) was inactive: 11.7%; that for `CO/N=C(\C(=O)N[C@@H]1C(=O)N2C(C(=O)O)=CCS[C@H]12)c1csc(N)n1` was inactive: 18.9%.
Still for that read-out and setting: under `O=C1NC(=O)C(c2ccccc2[N+](=O)[O-])=C1Nc1ccc(O)c(Cl)c1` stands “inactive”; under `CC(=O)c1ccccc1-c1ccc2c(c1)CC(CNC(=O)c1cc(C)on1)O2` (stereo not given), inactive: 5.97%.
On the same count and under the same terms, the value for `CC(C)Cc1nc2cc(NS(=O)(=O)N(C)C)cc(C(=O)N3CCc4sccc4C3)c2n1C` was inactive: 2.86%; that for `Cc1c(C(=O)NCc2ccc(F)cc2)sc2ncnc(NCC3CCCO3)c12` (stereo not given) was inactive: 13.1%.
`O=C(O)[C@H]1CCCN1`: the “activity change, negative = inhibition” value is inactive: 13.8%.
For the compound `COC(=O)N1CCC2(CCCN(C(=O)Nc3cccc(C#N)c3)C2)CC1`, the “activity change, negative = inhibition” value is inactive: 35.7%.
The same measure, in the same setting: the value for `CCCc1ncc(C[n+]2ccccc2C)c(N)n1` was “inactive”; that for `N#Cc1cccc(NC(=O)N2CC[C@@]3(CCCNC3)C2)c1` was inactive: -10.3%.
On to `CS(=O)(=O)N1CCC2(CC1)CN(Cc1cc(C(F)(F)F)cc(C(F)(F)F)c1)C2`, for which the “activity change, negative = inhibition” value is inactive: 5.53%.
`CCCCCCCCCCCCCCCC(=O)NCC(COP(=O)([O-])OCC[N+](C)(C)C)OCC` (stereo not given): the “activity change, negative = inhibition” value was inactive: -7.94% [at 75.8 µM].
Same read-out and setting: the value for `COc1ncc2nc(-c3cn(C)c4ccccc34)c(=O)n(-c3ccccc3)c2n1` was inactive: 3.63%; that for `Cc1nc2cnc(N(C)C)nc2n(-c2ccccc2)c1=O` was inactive: -2.05%.
As for `Cc1cc(C)nc(S[C@@H]2C[C@@H](C(=O)N3CCCN(C)CC3)N(Cc3cc(F)ccc3F)C2)n1`, the “activity change, negative = inhibition” value is inactive: 10.4%.
`CC=C1C2C=C(C)CC1(N)c1ccc(=O)[nH]c1C2` (stereo not given): the “activity change, negative = inhibition” value is inactive: 35.3%.
Same read-out and setting: under `COCCNc1nc(-c2ccc(C(=O)N(C)C)cc2)nc2ccccc12` stands inactive: 8.34%; under `CCCCCCCC/C=C\C/C=C\C/C=C\CCCC(=O)NCCO`, inactive: 24.1% [at 15.3 µM]; under `COC(=O)c1ccc(CN2CCC3(CCC(CNC(=O)c4ccco4)O3)CC2)cc1` (stereo not given), inactive: -14.2%.
Still for that read-out and setting: the value for `CN(C)C=Nc1c(I)cc(I)c(CCC(=O)O)c1I` was inactive: 10.3%; that for `O=C(O)c1c(C(=O)O)c2ccccc2[nH]c1=O` was inactive: 10.2%; that for `CC(C)NC[C@H](O)c1ccc(NS(C)(=O)=O)cc1` was inactive: 1.42%.
On the same count and under the same terms, under `CC(=O)N1CCC2(CCN(Cc3ccccc3)CC2)CC1` stands inactive: 22.5%; under `Cc1ncc2c(c1CNC(=O)c1ccc3c(c1)OCO3)CCN(C(=O)c1cnsn1)C2`, inactive: 3.63%.
As to `Cc1cccc(CNc2ncncc2-c2ccc(C(=O)N(C)C)cc2)c1`, the “activity change, negative = inhibition” value was inactive: 0.33%.
Still for that read-out and setting: under `CC1(C)CCC(NC(=O)[C@@H](N)CCC(=O)O)CC1` stands “inactive”; under `CS(=O)(=O)N1CCC2(CCN(c3ccncc3)CC2)CC1`, inactive: 13.4%.
Same read-out and setting: under `NCCn1oc(=O)[nH]c1=O` stands inactive: 17.8%; under `Nc1ncnc2c1ncn2C1CC(O)C(CO)O1` (stereo not given), “inactive”; under `COCCn1c(=O)c(-c2ccc(F)cc2)nc2cnc(Nc3cccc(OC)c3)nc21`, inactive: 20.9%.
The same measure, in the same setting: under `Fc1ccc(C(c2ccc(F)cc2)N2CCN(CC=Cc3ccccc3)CC2)cc1` stands inactive: -12.8%; under `CCN(CC)CCNC(=O)c1cnn(-c2nccc(-c3cc4ccccc4o3)n2)c1C`, inactive: 19.7%.
Take `O=C(c1cccc(F)c1)N1CCC2(CCCN(Cc3ccccc3)C2)CC1`: the “activity change, negative = inhibition” value is inactive: -2.96%.
The same measure, in the same setting: the value for `NC(N)=NN=Cc1c(Cl)cccc1Cl` was inactive: 14%; that for `O=C(O)C1CCNCC1` was inactive: 9.43% [at 75.8 µM]; that for `CC(=O)OCC(=O)NCCCOc1cccc(CN2CCCCC2)c1` was “inactive”.
Same read-out and setting: under `O=[N+]([O-])c1ccc(C=C2c3ccccc3-c3ccccc32)cc1` stands inactive: 14.7%; under `CS(=O)(=O)c1ccc(-c2nc(-c3ccc(F)cc3)c(-c3ccncc3)[nH]2)cc1`, inactive: 20.4% [at 201 µM]; under `CCn1cc(C(=O)O)c(=O)c2cc(F)c(N3CCNCC3)nc21`, “inactive”.
Same read-out and setting: the value for `COC(=O)[C@H]1[C@H]2CC3c4[nH]c5ccccc5c4CCN3C[C@@H]2CC[C@@H]1O` (stereo not given in full) was inactive: 18.4%; that for `CCCCc1c(C)nc2c(OC)cccc2c1SCC(=O)O` was inactive: 17.1%; that for `COCc1c(C(=O)NC2CCOC(C)(C)C2)cnn1-c1nccc(-c2cccs2)n1` (stereo not given) was inactive: 18.6%.
As for `O=S1(=O)CCOC[C@H](CC2CCCCC2)N1Cc1ccccc1Br`, the “activity change, negative = inhibition” value is inactive: -18.4%.
With `CC1(C)CCC=[N+]1[O-]`, the “activity change, negative = inhibition” value is inactive: 11.1% [at 75.8 µM].
On the same count and under the same terms, the value for `COC(=O)C1=C(C)NC(COC(N)=O)=C(C(=O)OC(C)C)C1c1cccc(Cl)c1Cl` (stereo not given) was inactive: -11.5%.
The same measure, in the same setting: the value for `Cc1ccccc1-c1cncnc1Nc1ccc(F)cc1` was inactive: -17.6%.
The same measure, in the same setting: the value for `CC(=O)N[C@@H](Cc1ccc(O)cc1)C(=O)O` was inactive: 17.9%; that for `OC[C@@H](O)[C@@H](O)[C@H](O)[C@H](O)CO` was inactive: 14.5%; that for `C=CCc1ccc(O)c(OC)c1` was “inactive”.
As to `CNc1ncnc2ccc(-c3cccc(OC)c3)cc12`, the “activity change, negative = inhibition” value was inactive: 0.0806%.
Same read-out and setting: the value for `CS(=O)(=O)Nc1cccc(-c2nc(NCc3cccs3)c3ccccc3n2)c1` was inactive: -14.7%; that for `COc1ccc(NC(=O)N2CC3(CCN(C(=O)c4cccn4C)CC3)C2)cc1` was inactive: 5.96%.
The same measure, in the same setting: the value for `Cc1noc(C)c1C(=O)N1CCC2(CCCN(Cc3ccccc3)C2)CC1` was inactive: 15.4%; that for `CCCCN1C[C@H](O)[C@@H](O)[C@H](O)[C@H]1CO` was inactive: 9.02%.
On the same count and under the same terms, the value for `CCn1c(-c2ccccc2F)nc2cc(C(=O)NCc3ccc(C)o3)cc(NC(C)=O)c21` was inactive: 10.6%; that for `C[C@@H]1C(=O)O[C@H]2[C@@H](O)[C@@]34[C@H]5CC(C(C)(C)C)[C@]36[C@@H](OC(=O)[C@@H]6O)O[C@@]4(C(=O)O5)[C@@]12O` (stereo not given in full) was inactive: 9.45%.
